In PubChem BioAssay AID938 (National Center for Advancing Translational Sciences (NCATS), 2007):
Hit rate of the full screen: of about 73,000 compounds, about 1,800 (2.5%) were called active. Not shown: some 13% with an inconclusive outcome. Calls come from the whole dose curve; as a rule, active = well fitted activation curve with a large enough effect; inconclusive = small, poorly fitted or top-dose-only effect; inactive = no such curve, though single readings can be large or run the other way. The entries are a selection whose mix differs from that of the whole data set.

Experiment: qHTS Assay for Agonists of the Thyroid Stimulating Hormone Receptor: Activators of Intracellular cAMP Concentrations in Parental HEK 293; note: nearly all actives have a fitted effect of over 55% in size; for activation: % of control where 0% means no effect
Settings: parental HEK293 CNG cAMP sensor, membrane potential fluorescence; series mostly up to 57.1 µM; activation: at the top concentration
How it was run: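 Parental HEK 293 cells stably expressing a modified CNG channel (no TSHR) report cAMP rise as membrane depolarization. Membrane potential dye with 100 uM RO 20-1724 was loaded for 60 min at room temperature, then compound added for 30 min; fluorescence read at 590 nm.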
Potency is the fitted concentration of half-maximal effect.

| SMILES | activation | Potency |
| --- | --- | --- |
| CCN1CCCC1CNC(=O)c1cc(S(=O)(=O)CC)c(N)cc1OC (stereo not given) | inactive: -56.7% |  |
| CCC(=O)Nc1ccc(Cl)c(NC(=O)c2cccnc2)c1 | inactive: -58.1% |  |
| COc1ccc(-n2c(=O)c(C)nc3cnc(Oc4cccc(Cl)c4)nc32)cc1 |  | active: 15.8 µM |
| CCCN(CCC)Cc1c(C(=O)OCC)nnn1-c1nonc1N | inactive: 36.5% |  |
| CC(C)[C@H](CO)Nc1nc(Nc2cc(N)cc(Cl)c2)c2ncn(C(C)C)c2n1 | inactive: -33.1% |  |
| O=C1c2ccccc2-c2n[nH]c3cccc1c23 | inactive: -6.67% |  |
| CC1(C)CC(=O)C=C(NC2CCS(=O)(=O)C2)C1 (stereo not given) | inactive: 7.71% |  |
| Cc1cc(NCc2ccco2)n2c(nc3ccccc32)c1C#N | inactive: -43.6% |  |
| C=COCC1CN2C(CCC(C)C2c2ccc(Br)cc2)C(=O)O1 (stereo not given) | inactive: 20.1% [at 11.4 µM] |  |
| CCCC/C=C/C(NC(=O)Oc1cccc(C(F)(F)F)c1)c1ccccc1 (stereo not given) |  | active: 25.1 µM |
| CN1C(=O)CS(=O)c2ccc(C(=O)NCCC3=CCCCC3)cc21 (stereo not given) | inactive: 2.16% |  |
| Cc1ccc2ccccc2c1[N+](=O)[O-] | inactive: -55.7% |  |
| O=C1c2ccccc2C(=O)N1CCCc1nc(-c2ccc(Cl)cc2)no1 |  | active: 0.158 µM |
| CN(C)S(=O)(=O)c1ccc(Nc2ccc(O)c3c2C(=O)c2c([N+](=O)[O-])ccc(O)c2C3=O)cc1 | inactive: -46.5% [at 11.4 µM] |  |
| NCCC[C@@H](CC(=O)N[C@@H]1CCCC[C@H]1C(=O)N[C@H](CC(=O)N[C@@H](CCC(=O)O)CC(=O)O)Cc1ccccc1)NC(=O)C[C@H](Cc1ccccc1)NC(=O)[C@@H]1CCCC[C@H]1N |  | active: 0.0316 µM |
| Cc1cccc(OCCCCCn2ccnc2)c1C |  | active: 31.6 µM |
| Cc1cccc(NC(=O)c2sc3nc(-c4ccccc4)cn3c2C)n1 |  | active: 25.1 µM |
| COCCn1c(=N)c(C(=O)NCCc2ccc(OC)cc2)cc2c(=O)n3cccc(C)c3nc21 | inactive: -55.7% |  |
| COc1ccc(CCn2c(C)cc(C(=O)CSc3nnc(N)s3)c2C)cc1 |  | active: 25.1 µM |
| CCN1CCC[C@H]1CNC(=O)c1cc(S(N)(=O)=O)ccc1OC | inactive: 1.88% |  |
| Nc1ccc(S(N)(=O)=O)cc1 |  | inactive |
| CN(C)CCC(c1ccccc1)c1ccccn1 (stereo not given) | inactive: -3.49% |  |
| FC(F)(F)c1cc(CO[C@@H]2CCCN[C@H]2c2ccccc2)cc(C(F)(F)F)c1 | inactive: 21.7% |  |
| CC(Cc1ccccc1)C(=O)NCCO (stereo not given) | inactive: 37.5% |  |
| Cn1c(SCC(=O)NC2CCCC2)nnc1-c1ccc(S(=O)(=O)N2CCOCC2)cc1 |  | active: 25.1 µM |

| SMILES | activation | Potency |
| --- | --- | --- |
| O=C(CN1C(=O)COc2ccccc21)N(Cc1cccnc1)Cc1cccc(F)c1 |  | active: 15.8 µM |
| CCS(=O)(=O)n1nc(NCc2cccc(OC)c2)nc1NCc1cccc(OC)c1 | inactive: 15.1% |  |
| CCOC(=O)COc1ccc(S(=O)(=O)NCc2ccncc2)cc1 | inactive: 14.9% |  |
| c1ccc2n[nH]nc2c1 | inactive: 3.91% |  |
| C=C(C)C1CC=C(C)C(OC(C)=O)C1 (stereo not given) | inactive: -8.26% |  |
| COc1cccc(/C=N/n2c(C)nc3ccccc32)c1OC |  | active: 15.8 µM |
| Cc1noc(C)c1-c1nc(NCc2ccccc2)c2ccccc2n1 |  | active: 25.1 µM |
| O=C(CSCCO)Nc1cccc2ccccc12 | inactive: -46.7% |  |
| COc1cc2cc3c4c(cc(OC)c(OC)c4c2cc1OC)CCN3C | inactive: -63% |  |
| O=C(c1cc2c(s1)CCCC2)N1CCN(Cc2ccc3c(c2)OCO3)CC1 | inactive: -46.5% |  |
| Cc1ccc2nc3c(c(N)c2c1)CCN3c1ccccc1 | inactive: -62.8% |  |
| CN(C)/C=N/c1c(C#N)cnn1-c1ncnc2sc(-c3ccccc3)cc12 | inactive: 3.84% |  |
| CCN1CCN(c2c(Cl)cccc2NC(=O)c2ccc(Br)o2)CC1 | inactive: -36.4% |  |
| O=C(OCc1c(Cl)nc2sccn12)c1cc2c(s1)CCCC2 |  | active: 12.6 µM |
| C[C@@H](NC(=O)/C(C#N)=C/c1ccc(O)c(O)c1)c1ccccc1 | inactive: 11.2% |  |
| COc1ccc(OCC2CN3C(CCC(C)C3c3ccc(Br)cc3)C(=O)O2)cc1 (stereo not given) | inactive: 6.21% [at 11.4 µM] |  |
| CN1CCCCc2c1nc1ccccc1c2N (tested in a mixture with another compound) | inactive: -34% |  |
| CCCCCCc1ccc(O)cc1O | inactive: -13.2% |  |
| Cc1ccc(CC(NC(=O)c2ccccc2)C(=O)N2CCCC2C(=O)O)cc1 (stereo not given) | inactive: -40.5% |  |
| COc1ccccc1O |  | inactive |
| COC(=O)c1ccc(C(NC(=O)OCc2ccccc2)/C(=C/[C@@H](C)C(=O)NCCF)c2cccnc2)cc1 (stereo not given in full) | inactive: 7.91% |  |
| CCCCN(CC)Cc1c(C)[nH]c2ccccc2c1=O | inactive: -49.6% |  |
| Cn1c(C(C#N)C2=C(Cl)C(=O)N(c3ccccc3)C2=O)nc2ccccc21 (stereo not given) | inactive: -54.4% |  |
| COc1cc(NC(=O)c2ccco2)c(OC)cc1NC(=O)Nc1cccc(Cl)c1 | inactive: -34.8% |  |
| N#Cc1c2c(c(N3CCN(CCO)CC3)n3c1nc1ccccc13)CCCC2 | inactive: -32% |  |

| SMILES | activation | Potency |
| --- | --- | --- |
| S=C(S)O[C@@H]1C[C@@H]2C[C@H]1[C@@H]1CCC[C@H]21 | inactive: 4.96% |  |
| COC(=O)c1ccc(OC)c(CSc2nnc(COc3ccccc3)o2)c1 |  | active: 12.6 µM |
| OC(CN1CCOCC1)Cn1c(-c2cccc(Cl)c2)nc2ccccc21 (stereo not given) | inactive: -55.8% |  |
| COc1ccccc1N1CCN(C/C(O)=C(\C#N)c2nc(-c3ccccc3)cs2)CC1 | inactive: -33.1% |  |
| CCc1ccc(C(c2ccc(CC)cc2)C(Cl)Cl)cc1 | inactive: 13.6% |  |
| COC(=O)c1[nH]c2c(c1C)C(=O)CCC2 | inactive: -49.1% |  |
| CN(C)CC/C=C1\c2ccccc2COc2ccccc21 |  | inactive |
| COC(=O)[C@@]1(Cc2ccccc2)[C@H]2c3cc(C(=O)N(C)C)n(CCF)c3C[C@H]2CN1C(=O)c1ccccc1 |  | active: 25.1 µM |
| COCCn1c(=O)c(-c2cccc(C#N)c2)nc2cnc(Nc3ccccc3)nc21 |  | active: 0.251 µM |
| Cc1cc(C)nc(Sc2c(C)n[nH]c2C)n1 | inactive: -2.28% |  |
| COc1cc(NC(=O)c2ccco2)c(OC)cc1NC(=O)CSc1ncc(-c2ccc(F)cc2)[nH]1 | inactive: -44.8% |  |
| CC1CN(CCc2ccccc2)c2nc3c(c(=O)[nH]c(=O)n3C)n2C1 (stereo not given) | inactive: -31.1% |  |
| N=c1c(C(=O)NCc2ccco2)cc2c(=O)n3ccccc3nc2n1Cc1ccccc1 | inactive: -129% |  |
| COC(=O)CS | inactive: -21.2% |  |
| Cc1c(C(=O)Nc2ccc(N3CCOCC3)cc2)oc2ccccc12 | inactive: -36% |  |
| COc1ccccc1Nc1nc(NCCO)c2ccccc2n1 | inactive: -51.1% |  |
| O=c1c2[nH]c3ccccc3c2ncn1C1CCCCC1 | inactive: 1.97% |  |
| COCCNC(=O)CN(C(=O)Cn1nnc2ccccc21)c1ccc(F)c(Cl)c1 | inactive: 2.46% |  |
| COc1ccccc1CNc1ncnc2c1nnn2Cc1ccccc1 |  | active: 12.6 µM |
| COc1ccccc1Nc1nc(N)nc(CSCCO)n1 | inactive: -32% |  |
| CCCCOc1ccc(S(=O)(=O)n2c(C)nc3ccccc32)cc1 |  | active: 3.16 µM |
| c1ccc(CCNc2c3c(nc4ncnn24)CCC3)cc1 |  | active: 6.31 µM |
| C[C@@H](C(=O)NCC1CC1)[C@@H]1C[C@@]1(C)[C@@H](NC(=O)OCc1ccccc1)c1ccccc1 | inactive: 20.9% |  |
| O=C(NC1CCCCC1)C(c1ccccc1)N(Cc1ccco1)C(=O)Cn1cnc2ccccc21 (stereo not given) |  | active: 20 µM |
| CCC1Oc2ccc(C)cc2N(CC(=O)NCc2cccc(OC)c2)C1=O (stereo not given) |  | active: 12.6 µM |

| SMILES | activation | Potency |
| --- | --- | --- |
| CC(C)C(C)C | inactive: -14.9% |  |
| N=C1C=CC(=C(c2ccc(N)cc2)c2ccc(N)cc2)C=C1 |  | inactive |
| CCOC(=O)CCC(NC(=O)c1ccc(NCN2C(=O)c3ccccc3C2=O)cc1)C(=O)OCC (stereo not given) |  | active: 0.794 µM |
| CC1=C(SCCC#N)S/C(=C2\SC(C)=C(SCCC#N)S2)S1 | inactive: -48.4% |  |
| Cc1oc(-c2ccc(F)cc2)cc1-c1nn2c(-c3ccoc3C)nnc2s1 |  | active: 15.8 µM |
| O=C1OC2(c3cc(Br)c(O)c(Br)c3Oc3c2cc(Br)c(O)c3Br)c2c(Cl)c(Cl)c(Cl)c(Cl)c21 |  | active: 15.8 µM |
| O=C(O)[C@@H]1[C@@H]2C[C@H]3c4[nH]c5ccccc5c4CCN3C[C@@H]2CC[C@@H]1O | inactive: 1.56% |  |
| COc1ccc2[nH]c(I)c(CCNC(C)=O)c2c1 | inactive: -2.06% |  |
| c1cnc2c(c1)ccc1cccnc12 |  | inactive |
| CCOc1ccc(Br)cc1/C=N/O |  | active: 3.98 µM |
| CCOC(=O)c1cc(=O)n2[nH]c(-c3ccc(C)cc3)cc2n1 | inactive: -33.1% |  |
| COc1ccc(-c2oc3ncn(CCN4CCOCC4)c(=N)c3c2-c2ccc(OC)cc2)cc1 | inactive: -32.9% |  |
| C=C1CC[C@@H](O)C/C1=C/C=C1\CCC[C@]2(C)[C@@H]1CC[C@H]2[C@@H](C)/C=C\[C@@H](C)C(C)C | inactive: 2.69% |  |
| COC(=O)[C@@]1(Cc2ccc(F)cc2)[C@H]2c3cc(C(=O)N(C)C)n(Cc4ccsc4Br)c3C[C@H]2CN1C(=O)c1ccccc1 |  | active: 3.98 µM |
| OC[C@H]1O[C@@H]2O[C@H]3[C@H](O)[C@@H](O)[C@@H](O[C@H]4[C@H](O)[C@@H](O)[C@@H](O[C@H]5[C@H](O)[C@@H](O)[C@@H](O[C@H]6[C@H](O)[C@@H](O)[C@@H](O[C@H]7[C@H](O)[C@@H](O)[C@@H](O[C@H]8[C@H](O)[C@@H](O)[C@@H](O[C@H]1[C@H](O)[C@H]2O)O[C@@H]8CO)O[C@@H]7CO)O[C@@H]6CO)O[C@@H]5CO)O[C@@H]4CO)O[C@@H]3CO | inactive: -4.77% |  |
| COc1ccccc1N1CCN(C(c2cccs2)c2nnnn2C2CCCC2)CC1 (stereo not given) |  | active: 12.6 µM |
| CCCCCCOc1cccc(N)c1 | inactive: -32.8% |  |
| O=C(c1ccc(Br)s1)N1CCN(Cc2ccc3c(c2)OCO3)CC1 | inactive: 64% |  |
| CN1CCC(=C2c3ccccc3CC(=O)c3sccc32)CC1 |  | inactive |
| COC(=O)c1ccccc1O | inactive: -5.88% |  |
| COc1ccc2[nH]c3ccc(OC)cc3c2c1 | inactive: -53.2% |  |
| Nc1ccccc1O | inactive: -40.3% |  |
| CCOCCCn1c(=N)c(C(=O)NCc2ccc3c(c2)OCO3)cc2c(=O)n3ccccc3nc21 | inactive: -122% |  |
| Cc1c(N(C)C)nc2ccccc2c1N | inactive: -41.5% |  |
| CCOC(=O)c1ccc(NC(=O)CSc2nc3c(c(=O)n2C)SC(C)C3)cc1 (stereo not given) |  | active: 20 µM |
